Results published in article PMC9090332, “Reconstitution of surface lipoprotein translocation through the Slam translocon” (eLife, 2022).
Results are given in words; binding and its absence hold for the method and conditions named. For some assays here: In cells and extracts the contact can be indirect. Some binding calls cover weakened binding; strength is not graded here. Tags and fused reporters may be left off the sequences shown.

Chains of the proteins cited; added tags and fusions are not shown. Residues count along the entry.
UniProt P02787, residues 20-698: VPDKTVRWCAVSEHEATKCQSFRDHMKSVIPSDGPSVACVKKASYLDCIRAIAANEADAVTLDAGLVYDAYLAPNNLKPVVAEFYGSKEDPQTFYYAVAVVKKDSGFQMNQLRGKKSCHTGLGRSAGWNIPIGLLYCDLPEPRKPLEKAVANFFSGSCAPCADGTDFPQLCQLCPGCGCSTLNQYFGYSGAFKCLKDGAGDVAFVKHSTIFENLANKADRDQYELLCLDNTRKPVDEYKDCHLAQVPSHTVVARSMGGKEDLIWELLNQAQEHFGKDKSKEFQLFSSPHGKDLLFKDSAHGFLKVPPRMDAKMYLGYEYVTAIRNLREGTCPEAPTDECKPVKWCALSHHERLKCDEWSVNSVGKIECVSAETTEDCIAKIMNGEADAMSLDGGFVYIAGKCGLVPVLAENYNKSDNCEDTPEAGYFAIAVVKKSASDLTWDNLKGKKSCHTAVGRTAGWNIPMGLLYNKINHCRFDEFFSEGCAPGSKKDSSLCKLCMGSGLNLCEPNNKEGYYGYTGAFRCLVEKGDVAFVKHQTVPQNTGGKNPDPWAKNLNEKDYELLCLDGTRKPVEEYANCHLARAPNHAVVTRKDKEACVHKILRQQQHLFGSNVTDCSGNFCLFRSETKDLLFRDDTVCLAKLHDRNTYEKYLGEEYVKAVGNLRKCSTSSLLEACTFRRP
UniProt P0ABZ6, residues 21-428: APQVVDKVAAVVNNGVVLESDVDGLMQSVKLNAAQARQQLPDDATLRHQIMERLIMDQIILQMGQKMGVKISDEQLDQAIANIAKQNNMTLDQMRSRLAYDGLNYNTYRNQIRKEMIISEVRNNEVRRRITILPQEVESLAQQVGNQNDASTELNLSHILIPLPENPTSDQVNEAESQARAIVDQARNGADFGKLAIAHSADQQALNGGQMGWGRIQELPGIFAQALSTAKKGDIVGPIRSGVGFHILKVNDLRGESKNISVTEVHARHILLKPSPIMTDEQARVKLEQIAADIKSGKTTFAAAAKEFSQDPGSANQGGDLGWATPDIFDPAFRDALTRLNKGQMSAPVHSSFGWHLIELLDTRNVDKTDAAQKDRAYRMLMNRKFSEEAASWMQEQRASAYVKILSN

Legend:
[1] = molecular target: T1, Moraxella catarrhalis transferrin binding protein B, C-terminal flag-tag (Moraxella catarrhalis) (UniProt P0DTW7); experiment: far-Western, overlay or dot blot; 0.5 μl TbpB (1 mg/ml) spotted on nitrocellulose, blocked with 5% skim milk, developed with biotinylated human transferrin (50 μg/ml) and streptavidin-conjugated HRP; both purified
T1 sequence (chain, lipidated (processed by Lgt, Lsp, and Lnt)): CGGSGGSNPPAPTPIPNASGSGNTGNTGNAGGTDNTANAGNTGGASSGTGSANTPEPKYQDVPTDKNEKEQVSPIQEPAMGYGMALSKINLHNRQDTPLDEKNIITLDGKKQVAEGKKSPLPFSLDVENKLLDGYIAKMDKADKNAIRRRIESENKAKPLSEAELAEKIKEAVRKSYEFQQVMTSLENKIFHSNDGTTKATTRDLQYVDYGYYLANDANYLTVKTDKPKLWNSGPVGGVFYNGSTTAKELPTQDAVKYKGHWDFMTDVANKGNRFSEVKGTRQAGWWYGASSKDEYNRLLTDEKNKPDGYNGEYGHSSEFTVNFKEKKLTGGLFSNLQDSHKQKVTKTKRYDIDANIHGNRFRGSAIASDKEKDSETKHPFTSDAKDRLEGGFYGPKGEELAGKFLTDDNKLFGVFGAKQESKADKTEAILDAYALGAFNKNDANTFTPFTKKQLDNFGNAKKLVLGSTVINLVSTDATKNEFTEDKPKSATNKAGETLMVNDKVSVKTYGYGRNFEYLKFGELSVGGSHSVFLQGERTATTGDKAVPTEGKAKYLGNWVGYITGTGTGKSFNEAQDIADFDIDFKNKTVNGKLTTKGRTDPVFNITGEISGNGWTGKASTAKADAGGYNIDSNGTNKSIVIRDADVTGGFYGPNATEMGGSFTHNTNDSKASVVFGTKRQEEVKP

[2] = molecular target: T1, Moraxella catarrhalis transferrin binding protein B, C-terminal flag-tag (Moraxella catarrhalis); experiment: pull-down; flag beads with supernatant of E. coli spheroplasts releasing flag-tagged TbpB or AfuA; eluted with 50 mM glycine pH 2.8; western blot with α-E. coli Skp antibody; partner endogenous in the supernatant
[3] = molecular target: T1, Moraxella catarrhalis transferrin binding protein B, C-terminal flag-tag (Moraxella catarrhalis); experiment: pull-down; flag beads with supernatant of E. coli spheroplasts releasing flag-tagged TbpB or AfuA; eluted with 50 mM glycine pH 2.8; purified His-tagged LolA added to the spheroplasts, detected with α-his antibody; only the binder purified
[4] = molecular target: iron-loaded human transferrin conjugated to beads (human) (UniProt P02787); experiment: condition: only TbpB left after proteinase K with Bam proteoliposomes (not translocated); pull-down; as a7, but the TbpB left after proteinase K with the negative control Bam proteoliposomes; only the target purified
[5] = molecular target: iron-loaded human transferrin conjugated to beads (human) (UniProt P02787); experiment: pull-down; spheroplast-secreted TbpB protected from proteinase K by Slam1 proteoliposomes; 1 mM PMSF, dissolved in 0.1% Triton X, incubated with iron-loaded human transferrin-conjugated beads; α-flag blot; only the target purified
[6] = molecular target: T2, E. coli DegP with N-terminal 6xHis tag, purified (E. coli) (UniProt P0C0V0); experiment: pull-down; reciprocal pulldown: 10 μM purified His-tagged chaperone (SurA, Skp or DegP) and 10 μM untagged LolA added during TbpB/HpuA (AfuA control) expression in E. coli spheroplasts; supernatant on Ni-resin 2 hr at 4°C; washed with 50 mM Tris 7, 200 mM NaCl, 10 mM imidazole, 0.1% Triton X-100; eluted with 200 mM imidazole; α-flag western blot; only the target purified
T2 sequence: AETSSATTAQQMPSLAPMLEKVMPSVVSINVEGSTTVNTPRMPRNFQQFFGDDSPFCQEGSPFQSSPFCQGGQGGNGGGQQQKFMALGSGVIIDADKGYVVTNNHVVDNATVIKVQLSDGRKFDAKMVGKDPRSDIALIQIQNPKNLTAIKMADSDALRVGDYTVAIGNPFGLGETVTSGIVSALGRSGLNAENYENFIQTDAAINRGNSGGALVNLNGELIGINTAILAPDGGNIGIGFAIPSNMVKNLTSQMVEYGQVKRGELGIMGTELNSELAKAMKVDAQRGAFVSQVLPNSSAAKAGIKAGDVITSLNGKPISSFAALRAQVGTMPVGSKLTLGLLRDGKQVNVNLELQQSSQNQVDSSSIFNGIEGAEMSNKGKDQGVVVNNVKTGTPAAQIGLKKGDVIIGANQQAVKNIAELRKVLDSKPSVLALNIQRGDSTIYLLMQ

[7] = molecular target: T3, E. coli Skp with N-terminal 6xHis tag, purified (E. coli) (UniProt P0AEU7); experiment: as above
T3 sequence: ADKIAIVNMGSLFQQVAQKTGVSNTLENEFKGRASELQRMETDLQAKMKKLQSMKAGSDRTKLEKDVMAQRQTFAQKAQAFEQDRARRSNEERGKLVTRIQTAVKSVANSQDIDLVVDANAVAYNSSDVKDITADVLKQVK

[8] = molecular target: E. coli SurA with N-terminal 6xHis tag, purified (E. coli) (UniProt P0ABZ6); experiment: as above

With “biotinylated human transferrin (from UniProt P02787 20-698)” the binding [1] was “binds”.

B1: periplasmic chaperone Skp of E. coli, endogenous (protein, UniProt P0AEU7 21-161)
chain: T3 sequence
B1 was tested, and the binding [2] was “binds”.

B2: E. coli LolA with 6xHis tag, purified (protein, UniProt P61316 22-203)
chain: DAASDLKSRLDKVSSFHASFTQKVTDGSGAAVQEGQGDLWVKRPNLFNWHMTQPDESILVSDGKTLWFYNPFVEQATATWLKDATGNTPFMLIARNQSSDWQQYNIKQNGDDFVLTPKASNGNLKQFTINVGRDGTIHQFSAVEQDDQRSSYQLKSQQNGAVDAAKFTFTPPQGVTVDDQRK
B2 was tested, and the binding [3] was “binds”.

B3: Moraxella catarrhalis transferrin binding protein B, C-terminal flag-tag (natural protein)
chain: T1 sequence (chain, lipidated (processed by Lgt, Lsp, and Lnt))
modifications: lipidated (processed by Lgt, Lsp, and Lnt)
For B3, the binding [4] was “no binding”, the binding [5] was “binds” and the binding [6] was “no binding (tested: 10 μM of each chaperone)”. The binding [7] was “binds” and the binding [8] was “no binding (tested: 10 μM of each chaperone)”.
